According to paper PMC4336329 (PLoS ONE, 2015):
About 2,200 (0.71%) of roughly 310,000 compounds showed an effect of 50% or more. The effect is printed as a negative number. The list shows a part of the results.

These compounds were tested against human ether-à-go-go-related gene (hERG) potassium channel (human, UniProt Q12809) (assay: primary screen, population patch clamp on CHO cells stably expressing hERG).
Sequence of human ether-à-go-go-related gene (hERG) potassium channel (Q12809 whole entry, looked up): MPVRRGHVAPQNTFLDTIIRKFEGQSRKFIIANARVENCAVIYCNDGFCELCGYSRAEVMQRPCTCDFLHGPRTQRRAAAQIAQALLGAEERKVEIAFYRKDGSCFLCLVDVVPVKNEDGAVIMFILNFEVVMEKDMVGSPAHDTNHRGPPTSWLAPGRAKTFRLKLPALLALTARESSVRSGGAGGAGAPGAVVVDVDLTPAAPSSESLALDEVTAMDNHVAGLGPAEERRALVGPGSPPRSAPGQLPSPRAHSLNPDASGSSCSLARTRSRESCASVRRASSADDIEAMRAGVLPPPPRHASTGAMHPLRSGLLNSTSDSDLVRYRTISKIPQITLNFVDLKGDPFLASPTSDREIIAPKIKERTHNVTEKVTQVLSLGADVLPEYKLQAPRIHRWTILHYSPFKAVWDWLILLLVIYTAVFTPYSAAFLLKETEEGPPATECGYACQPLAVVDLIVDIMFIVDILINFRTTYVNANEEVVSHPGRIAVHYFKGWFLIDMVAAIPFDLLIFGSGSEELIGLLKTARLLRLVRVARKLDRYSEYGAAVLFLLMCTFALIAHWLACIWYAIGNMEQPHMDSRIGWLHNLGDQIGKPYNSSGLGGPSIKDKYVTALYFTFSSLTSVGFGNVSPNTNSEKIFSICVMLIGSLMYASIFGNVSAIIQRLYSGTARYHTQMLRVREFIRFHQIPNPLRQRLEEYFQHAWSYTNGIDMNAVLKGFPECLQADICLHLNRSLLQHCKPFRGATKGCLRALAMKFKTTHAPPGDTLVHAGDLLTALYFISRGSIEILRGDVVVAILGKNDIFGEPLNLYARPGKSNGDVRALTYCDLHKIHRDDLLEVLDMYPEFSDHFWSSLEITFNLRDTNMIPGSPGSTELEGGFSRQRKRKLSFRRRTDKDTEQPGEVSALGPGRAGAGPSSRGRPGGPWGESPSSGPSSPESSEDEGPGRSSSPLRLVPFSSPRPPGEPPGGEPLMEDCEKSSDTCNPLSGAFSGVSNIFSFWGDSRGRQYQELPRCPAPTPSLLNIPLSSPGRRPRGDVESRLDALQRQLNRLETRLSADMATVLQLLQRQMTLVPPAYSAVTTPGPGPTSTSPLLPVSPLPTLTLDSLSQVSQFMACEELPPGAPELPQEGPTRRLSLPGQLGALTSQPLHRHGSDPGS

Going from O=S(=O)(N1CCOCC1)n1c(Cc2ccccc2)nc2ccccc21 to O=C(CN1CCN(S(=O)(=O)c2ccccc2)CC1)NCCc1ccccc1, the “hERG current change (%, negative = inhibition) at 1uM” value rises from 7.65% to 15%.

Going from CC1Cc2nc(SCC(=O)NCC3CCCO3)n(-c3ccc(F)cc3)c(=O)c2S1 (stereo not drawn) to CNC(=O)CSc1nnc(-c2ccco2)n1-c1cc(C)ccc1C, the “hERG current change (%, negative = inhibition) at 1uM” value rises from 4.61% to 6.45%.

Going from CCOc1ccc(C(=O)NCc2ccccc2)cc1Br to CC(=O)OC(C(=O)NCCc1ccccc1)c1cccnc1 (stereo not drawn), the “hERG current change (%, negative = inhibition) at 1uM” value rises from -0.39% to 5.94%.

First: CCCNC(=O)NC1CCCCCCC1
Second: CCCNC(=O)CS(=O)(=O)c1ccccc1
The “hERG current change (%, negative = inhibition) at 1uM” value of the first is higher: 9.61% for the first, 0.126% for the second.

Compared with O=c1c(-c2ccc(F)cc2)coc2c3c(ccc12)OCCO3, CCN1CCCC1CNCc1cccc(OC)c1OCc1ccc(F)cc1.Cl (stereo not drawn) is lower in “hERG current change (%, negative = inhibition) at 1uM” value: 5.3% for the first, -8.28% for the second.

Going from COc1ccc2c(c1)sc1nc(=O)ccn12 to COc1ccc(CC(=O)N/N=C/c2sccc2C)cc1, the “hERG current change (%, negative = inhibition) at 1uM” value rises from 12.1% to 17%.

Going from COc1ccc(CNC(=O)C2CCCN(S(=O)(=O)c3ccc(Br)s3)C2)cc1 (stereo not drawn) to CCC1CCCCN1S(=O)(=O)c1ccc(NC(=O)c2cccnc2)cc1 (stereo not drawn), the “hERG current change (%, negative = inhibition) at 1uM” value falls from 9.75% to 7.93%.

Going from Cc1cc(C(=O)NC(CC(C)C)C(=O)O)cc(C)c1[N+](=O)[O-] (stereo not drawn) to CC(C)NC(=O)CSc1nc2[nH]ncc2c(=O)[nH]1, the “hERG current change (%, negative = inhibition) at 1uM” value falls from 9.99% to 9.74%.

Compared with CC(C)(O)c1cc2ccc(C#Cc3ccsc3)cc2c(=O)o1, CN1C(=O)CC(Nc2cccc3cccc(N)c23)C1=O (stereo not drawn) is lower in “hERG current change (%, negative = inhibition) at 1uM” value: 9.8% for the first, 7.47% for the second.

First: CCOC(=O)NC(Nc1cc(C)ccn1)(C(F)(F)F)C(F)(F)F
Second: COC(=O)c1ccc(Cn2nc(C(F)(F)F)cc2C)cc1
The “hERG current change (%, negative = inhibition) at 1uM” value of the first is higher: 9.58% for the first, 9.1% for the second.

First: Cc1cccc(Oc2nccc(C(F)(F)F)c2C(=O)Nc2ccc(F)cc2F)c1
Second: COc1ccc(C(=O)c2c(C(F)(F)F)oc3c2C(=O)c2ccccc2C3=O)cc1
The “hERG current change (%, negative = inhibition) at 1uM” value of the first is lower: 8.88% for the first, 10% for the second.

Compared with CCCN(CCC)c1ccc(CC(=O)NC(C)Cc2ccccc2)cc1 (stereo not drawn), CCCCOc1ccc(NC(=O)CSc2cccc3cccnc23)cc1 is lower in “hERG current change (%, negative = inhibition) at 1uM” value: 4.39% for the first, 0.239% for the second.

Compared with O=C(CN(C(=O)CCC(=O)Nc1ccccn1)c1ccc2c(c1)OCCO2)NCCc1ccccc1, CC(=O)c1cccc(NC(=O)NNC(=O)c2ccc(-c3ccccc3)cc2)c1 is lower in “hERG current change (%, negative = inhibition) at 1uM” value: 9.82% for the first, 3.75% for the second.

Compared with CCNC(=O)NNC(=O)C1CC(c2cccs2)=NO1 (stereo not drawn), CCOC(=O)c1ccc(NC(=S)NNC(=O)COC)cc1 is higher in “hERG current change (%, negative = inhibition) at 1uM” value: 12.3% for the first, 13.8% for the second.

First: CCOC(=O)C(=O)N1c2ccccc2C(N(C(=O)C(=O)OCC)c2ccccc2)CC1C (stereo not drawn)
Second: CCOC(=O)c1sc(-c2ccccc2)cc1NC(=O)c1ccc(S(=O)(=O)N(CCOC)CCOC)cc1
The “hERG current change (%, negative = inhibition) at 1uM” value of the first is higher: 13.8% for the first, 9.24% for the second.

First: COC(=O)Cc1ccc(NC(=S)NC(C)(C)C)cc1
Second: CC(=O)Nc1ccc(NCN2C(=O)[C@@H]3[C@H]4CC[C@H](C4)[C@@H]3C2=O)cc1
The “hERG current change (%, negative = inhibition) at 1uM” value of the first is higher: 14.3% for the first, 1.6% for the second.

First: CC(=O)N1CCOc2ccc(S(=O)(=O)Nc3cccc(C)c3)cc21
Second: O=S(=O)(Nc1ccc2ccccc2c1)c1ccccc1
The “hERG current change (%, negative = inhibition) at 1uM” value of the first is lower: 8.06% for the first, 14.1% for the second.

Compared with CCN1CCN(CCCNC(=O)c2ccc3c(c2)NC(=O)c2ccccc2S3)CC1, CCN1CCN(CCNC(=O)c2ccc3c(c2)N(Cc2ccc(F)cc2)C(=O)/C(=C/c2ccccc2)S3)CC1 is lower in “hERG current change (%, negative = inhibition) at 1uM” value: 5.02% for the first, -2.59% for the second.

Going from CC1=NN2C(=N)/C(=C\c3cc(C)n(-c4ccccc4)c3C)C(=O)N=C2S1 to COc1ccccc1-c1cc(N)n(S(=O)(=O)c2cccc3nsnc23)n1, the “hERG current change (%, negative = inhibition) at 1uM” value rises from 3.04% to 18.4%.

Compared with CCC(C)c1ccc(-c2cc(C(=O)OCC(=O)Nc3cc(C)on3)c3ccccc3n2)cc1 (stereo not drawn), CC(=O)Oc1cccc(N2C(=O)c3cccc4c([N+](=O)[O-])ccc(c34)C2=O)c1 is higher in “hERG current change (%, negative = inhibition) at 1uM” value: 12.4% for the first, 13.4% for the second.

Going from NC(=O)CC(NC(=O)Cc1ccc(Br)cc1)c1ccc(N2CCN(c3ccc(F)cc3)CC2)c([N+](=O)[O-])c1 (stereo not drawn) to COc1ccccc1N1CCN(/N=C/C=C/c2ccccc2[N+](=O)[O-])CC1, the “hERG current change (%, negative = inhibition) at 1uM” value rises from -2.34% to 10.2%.

Going from CCOC(=O)C1=C(COC(=O)c2cc(Br)c(Br)s2)NC(=O)NC1C (stereo not drawn) to CCc1cc(=O)oc2cc(C)cc(OCC(=O)NCCCn3ccnc3)c12, the “hERG current change (%, negative = inhibition) at 1uM” value falls from 6.29% to -7.42%.

CCn1nc(C)c(/C=N/NC(=S)Nc2ccc(Cl)cc2Cl)c1C was tested, and the “hERG current change (%, negative = inhibition) at 1uM” value was -16%.
